This note sets out measurements from the supplement of paper PMC12217912.

This is one part of the list. The full chains were built here from the parent and the listed change. Values near 0.05 are background.

B1: TEV protease; numbered along this chain (parent)
chain: MGESLFKGPRDYNPISSSICHLTNESDGHTTSLYGIGFGPFIITNKHLFRRNNGTLVVQSLHGVFKVKDTTTLQQHLVDGRDMIIIRMPKDFPPFPQKLKFREPQREERICLVTTNFQTKSMSSMVSDTSCTFPSGDGIFWKHWIQTKDGQCGSPLVSTRDGFIVGIHSASNFTNTNNYFTSVPKNFMELLTNQEAQQWVSGWRLNADSVLWGGHKVFMVKPEEPFQPVKEATQL

In this assay the parent is B1. Description: raw area under fraction-flipped curve 0-4 h after induction (AUC4h, not background-subtracted), DNA-recorder readout of cleavage of the substrate (dimensionless); higher = more cleavage of the substrate by the protease variant. The following applies: temperature: 34 °C; time window: 0-4 h after rhamnose induction. The method, then:
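In vivo DNA recorder in E. coli TOP10(DE3) ΔrhaA at 34 °C. Each TEVp single-site mutant (parent TEVp 0) is paired with a single-site variant of the 7-mer TEVs (canonical ENLYFQ|S). The substrate sits between flexible linkers in a Bxb1-sfGFP-TEVs-SsrA fusion, so cleavage stabilises Bxb1 and speeds flipping of a recombination array, read by NGS. The value is the raw area under the fraction-flipped curve over 0-4 h after rhamnose induction (AUC4h), with ≥20 reads per time point. It is not background-subtracted; inactive controls average about 0.047.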
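Note: Bxb1 expression induced with 0.2% (w/v) L-rhamnose at OD600 near 0.5, cultures sampled hourly, flipped fraction per protease–substrate barcode pair counted by paired-end Illumina sequencing.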

MGESLFKGPRDYNPISSSICHLTNESDGHTTSLYGIGFGPGIITNKHLFRRNNGTLVVQSLHGVFKVKDTTTLQQHLVDGRDMIIIRMPKDFPPFPQKLKFREPQREERICLVTTNFQTKSMSSMVSDTSCTFPSGDGIFWKHWIQTKDGQCGSPLVSTRDGFIVGIHSASNFTNTNNYFTSVPKNFMELLTNQEAQQWVSGWRLNADSVLWGGHKVFMVKPEEPFQPVKEATQL [F41G]: the “area with substrate CNLYFQS” value was determined as 0.0478, the “area with substrate DNLYFQS” value was 0.0724, the “area with substrate FNLYFQS” value stood at 0.0555 and the “area with substrate HNLYFQS” value came to 0.045. Also, the “area with substrate INLYFQS” value amounted to 0.0442, the “area with substrate KNLYFQS” value is 0.0417, the “area with substrate PNLYFQS” value is 0.0566 and the “area with substrate QNLYFQS” value came to 0.0034. Moreover, the “area with substrate RNLYFQS” value was 0.0532, the “area with substrate SNLYFQS” value was found to be 0.0469, the “area with substrate TNLYFQS” value amounted to 0.0497 and the “area with substrate WNLYFQS” value came out at 0.0555. Further, the “area with substrate YNLYFQS” value was 0.036.
As to MGESLFKGPRDYNPISSSICHLTNESDGHTTSLYGIGFGPFIITNKHLFRRNNGTLVVQSLHGVFKVKDTTTLQQLLVDGRDMIIIRMPKDFPPFPQKLKFREPQREERICLVTTNFQTKSMSSMVSDTSCTFPSGDGIFWKHWIQTKDGQCGSPLVSTRDGFIVGIHSASNFTNTNNYFTSVPKNFMELLTNQEAQQWVSGWRLNADSVLWGGHKVFMVKPEEPFQPVKEATQL [H76L], the “area with substrate CNLYFQS” value is 0.0526, the “area with substrate DNLYFQS” value is 0.0822, the “area with substrate HNLYFQS” value is 0.0643 and the “area with substrate KNLYFQS” value amounted to 0.0697. The “area with substrate MNLYFQS” value is 0.0622, the “area with substrate NNLYFQS” value was 0.0707, the “area with substrate PNLYFQS” value worked out at 0.0694 and the “area with substrate SNLYFQS” value worked out at 0.0711. For the same variant, the “area with substrate VNLYFQS” value stood at 0.067, the “area with substrate WNLYFQS” value came out at 0.0513 and the “area with substrate YNLYFQS” value is 0.0574.
With MGESLFKGPRDYNPISSSICHLTNESDGHTTSLYGIGFGPFIITNKHLFRRNNGTLVVQSLHGVFKVKDTTTLQQDLVDGRDMIIIRMPKDFPPFPQKLKFREPQREERICLVTTNFQTKSMSSMVSDTSCTFPSGDGIFWKHWIQTKDGQCGSPLVSTRDGFIVGIHSASNFTNTNNYFTSVPKNFMELLTNQEAQQWVSGWRLNADSVLWGGHKVFMVKPEEPFQPVKEATQL [H76D], the “area with substrate CNLYFQS” value turned out to be 0.0529, the “area with substrate DNLYFQS” value was 0.0648, the “area with substrate FNLYFQS” value was 0.0661 and the “area with substrate GNLYFQS” value was 0.0767. Also, the “area with substrate HNLYFQS” value amounted to 0.0715, the “area with substrate INLYFQS” value was 0.0638, the “area with substrate NNLYFQS” value came out at 0.0613 and the “area with substrate SNLYFQS” value was 0.0573. In addition, the “area with substrate TNLYFQS” value was 0.0623, the “area with substrate WNLYFQS” value was 0.0378 and the “area with substrate YNLYFQS” value amounted to 0.0662.
MGESLFKGPRDYNPISSSICHLTNESDGHTTSLYGIGFGPFIITNKHLFRRNNGTLVVQSLHGVFKVKDTTTLQQHLVDGRDMIIIRMPKDFPPFPQKLKFREPQREERICLVTTNFQTKSMSSMVSDTSCTFPSGDGIFWKHWIQTKDGQCGSPLVSTRDGFIVGIHSASNFTNTNNYFTSVPKNFMELLTNQEAQQWVSGWRLNADSVLWGGHKVFMVKPEEPFQPVKNATQL [E231N]: the “area with substrate CNLYFQS” value was found to be 0.0761, the “area with substrate DNLYFQS” value was 0.0922, the “area with substrate HNLYFQS” value is 0.0575 and the “area with substrate KNLYFQS” value was 0.0762. The “area with substrate LNLYFQS” value was determined as 0.0712, the “area with substrate QNLYFQS” value was determined as 0.079, the “area with substrate RNLYFQS” value worked out at 0.0621 and the “area with substrate WNLYFQS” value was 0.0492. The “area with substrate YNLYFQS” value amounted to 0.0719.
As for MGESLFKGPRDYNPISSSICHLTNESDGHTTSLYGIGFGPFIITNKHLFRRNNGTLVVQSLHRVFKVKDTTTLQQHLVDGRDMIIIRMPKDFPPFPQKLKFREPQREERICLVTTNFQTKSMSSMVSDTSCTFPSGDGIFWKHWIQTKDGQCGSPLVSTRDGFIVGIHSASNFTNTNNYFTSVPKNFMELLTNQEAQQWVSGWRLNADSVLWGGHKVFMVKPEEPFQPVKEATQL [G63R], the “area with substrate CNLYFQS” value came to 0.0584, the “area with substrate DNLYFQS” value stood at 0.0701, the “area with substrate FNLYFQS” value came out at 0.0486 and the “area with substrate HNLYFQS” value came to 0.0648. For the same variant, the “area with substrate INLYFQS” value worked out at 0.0729, the “area with substrate KNLYFQS” value is 0.0635, the “area with substrate LNLYFQS” value was 0.0598 and the “area with substrate NNLYFQS” value is 0.0571. The “area with substrate QNLYFQS” value was 0.0597, the “area with substrate RNLYFQS” value worked out at 0.0658, the “area with substrate SNLYFQS” value was found to be 0.0668 and the “area with substrate WNLYFQS” value worked out at 0.0585. Also, the “area with substrate YNLYFQS” value turned out to be 0.0561.
In the case of MGESLFKGPRDYNPISSSICHLTNESDGHTTSLYGIGFGPFIITNKHLFRRNNGTLVVQSLHGVFKWKDTTTLQQHLVDGRDMIIIRMPKDFPPFPQKLKFREPQREERICLVTTNFQTKSMSSMVSDTSCTFPSGDGIFWKHWIQTKDGQCGSPLVSTRDGFIVGIHSASNFTNTNNYFTSVPKNFMELLTNQEAQQWVSGWRLNADSVLWGGHKVFMVKPEEPFQPVKEATQL [V67W], the “area with substrate CNLYFQS” value was 0.0592, the “area with substrate DNLYFQS” value was determined as 0.0809, the “area with substrate GNLYFQS” value amounted to 0.0643 and the “area with substrate INLYFQS” value turned out to be 0.0639. Moreover, the “area with substrate KNLYFQS” value was 0.0715, the “area with substrate LNLYFQS” value stood at 0.0624, the “area with substrate NNLYFQS” value turned out to be 0.0668 and the “area with substrate SNLYFQS” value amounted to 0.0588. Also, the “area with substrate TNLYFQS” value turned out to be 0.0685, the “area with substrate VNLYFQS” value was 0.0496, the “area with substrate WNLYFQS” value came out at 0.0537 and the “area with substrate YNLYFQS” value stood at 0.0659.
As to MGESLFKGPRDYNPISSSICHLTNESDGHTTSLYGIGFGPFIITNKHLFRRNNGTLVVQSLHGVFKVADTTTLQQHLVDGRDMIIIRMPKDFPPFPQKLKFREPQREERICLVTTNFQTKSMSSMVSDTSCTFPSGDGIFWKHWIQTKDGQCGSPLVSTRDGFIVGIHSASNFTNTNNYFTSVPKNFMELLTNQEAQQWVSGWRLNADSVLWGGHKVFMVKPEEPFQPVKEATQL [K68A], the “area with substrate CNLYFQS” value was 0.0719, the “area with substrate DNLYFQS” value is 0.126, the “area with substrate FNLYFQS” value came out at 0.0619 and the “area with substrate HNLYFQS” value was 0.0599. In addition, the “area with substrate INLYFQS” value stood at 0.0662, the “area with substrate KNLYFQS” value came out at 0.0739, the “area with substrate MNLYFQS” value was 0.0764 and the “area with substrate PNLYFQS” value turned out to be 0.0676. In addition, the “area with substrate RNLYFQS” value came to 0.0586, the “area with substrate SNLYFQS” value is 0.07, the “area with substrate TNLYFQS” value was 0.0635 and the “area with substrate VNLYFQS” value was 0.0613. In addition, the “area with substrate WNLYFQS” value turned out to be 0.0829 and the “area with substrate YNLYFQS” value turned out to be 0.0542.
MGESLFKGPRDYNPISSSICHLTNESDGHTTSRYGIGFGPFIITNKHLFRRNNGTLVVQSLHGVFKVKDTTTLQQHLVDGRDMIIIRMPKDFPPFPQKLKFREPQREERICLVTTNFQTKSMSSMVSDTSCTFPSGDGIFWKHWIQTKDGQCGSPLVSTRDGFIVGIHSASNFTNTNNYFTSVPKNFMELLTNQEAQQWVSGWRLNADSVLWGGHKVFMVKPEEPFQPVKEATQL [L33R]: the “area with substrate CNLYFQS” value was determined as 0.0567, the “area with substrate DNLYFQS” value is 0.0702, the “area with substrate GNLYFQS” value was found to be 0.0571 and the “area with substrate HNLYFQS” value was 0.0685. Moreover, the “area with substrate MNLYFQS” value was determined as 0.0643, the “area with substrate NNLYFQS” value turned out to be 0.0614, the “area with substrate RNLYFQS” value worked out at 0.065 and the “area with substrate SNLYFQS” value came out at 0.0603. Also, the “area with substrate TNLYFQS” value was determined as 0.0677, the “area with substrate WNLYFQS” value came out at 0.0516 and the “area with substrate YNLYFQS” value was determined as 0.05.
On to MGESLFKGPRDYNPISSSICHLTNESDGHTTSLYGIGFGPFIITNKHLFRRNNGTLVVQSLHGVFKVKDTTTLQQHLVDGRDMIIIRMPKDFPPFPQKLKFREPQREERICLVTTNFQTKSMSSMVSDTSCTFPSGDGIFWKHWIQRKDGQCGSPLVSTRDGFIVGIHSASNFTNTNNYFTSVPKNFMELLTNQEAQQWVSGWRLNADSVLWGGHKVFMVKPEEPFQPVKEATQL [T147R], for which the “area with substrate CNLYFQS” value was 0.0398, the “area with substrate DNLYFQS” value came to 0.048, the “area with substrate GNLYFQS” value amounted to 0.0533 and the “area with substrate HNLYFQS” value worked out at 0.0576. Further, the “area with substrate INLYFQS” value turned out to be 0.0454, the “area with substrate LNLYFQS” value came out at 0.0602, the “area with substrate MNLYFQS” value was 0.0572 and the “area with substrate NNLYFQS” value was found to be 0.0445. Also, the “area with substrate PNLYFQS” value turned out to be 0.0542, the “area with substrate SNLYFQS” value turned out to be 0.0618, the “area with substrate TNLYFQS” value came out at 0.0636 and the “area with substrate WNLYFQS” value was 0.0665. The “area with substrate YNLYFQS” value turned out to be 0.0404.
